Screen size: about 310,000 compounds; about 2,200 (0.71%) showed an effect of 50% or more. The effect is printed as a negative number. The list shows a part of the results.

human ether-à-go-go-related gene (hERG) potassium channel, sequence (Q12809 whole entry, looked up): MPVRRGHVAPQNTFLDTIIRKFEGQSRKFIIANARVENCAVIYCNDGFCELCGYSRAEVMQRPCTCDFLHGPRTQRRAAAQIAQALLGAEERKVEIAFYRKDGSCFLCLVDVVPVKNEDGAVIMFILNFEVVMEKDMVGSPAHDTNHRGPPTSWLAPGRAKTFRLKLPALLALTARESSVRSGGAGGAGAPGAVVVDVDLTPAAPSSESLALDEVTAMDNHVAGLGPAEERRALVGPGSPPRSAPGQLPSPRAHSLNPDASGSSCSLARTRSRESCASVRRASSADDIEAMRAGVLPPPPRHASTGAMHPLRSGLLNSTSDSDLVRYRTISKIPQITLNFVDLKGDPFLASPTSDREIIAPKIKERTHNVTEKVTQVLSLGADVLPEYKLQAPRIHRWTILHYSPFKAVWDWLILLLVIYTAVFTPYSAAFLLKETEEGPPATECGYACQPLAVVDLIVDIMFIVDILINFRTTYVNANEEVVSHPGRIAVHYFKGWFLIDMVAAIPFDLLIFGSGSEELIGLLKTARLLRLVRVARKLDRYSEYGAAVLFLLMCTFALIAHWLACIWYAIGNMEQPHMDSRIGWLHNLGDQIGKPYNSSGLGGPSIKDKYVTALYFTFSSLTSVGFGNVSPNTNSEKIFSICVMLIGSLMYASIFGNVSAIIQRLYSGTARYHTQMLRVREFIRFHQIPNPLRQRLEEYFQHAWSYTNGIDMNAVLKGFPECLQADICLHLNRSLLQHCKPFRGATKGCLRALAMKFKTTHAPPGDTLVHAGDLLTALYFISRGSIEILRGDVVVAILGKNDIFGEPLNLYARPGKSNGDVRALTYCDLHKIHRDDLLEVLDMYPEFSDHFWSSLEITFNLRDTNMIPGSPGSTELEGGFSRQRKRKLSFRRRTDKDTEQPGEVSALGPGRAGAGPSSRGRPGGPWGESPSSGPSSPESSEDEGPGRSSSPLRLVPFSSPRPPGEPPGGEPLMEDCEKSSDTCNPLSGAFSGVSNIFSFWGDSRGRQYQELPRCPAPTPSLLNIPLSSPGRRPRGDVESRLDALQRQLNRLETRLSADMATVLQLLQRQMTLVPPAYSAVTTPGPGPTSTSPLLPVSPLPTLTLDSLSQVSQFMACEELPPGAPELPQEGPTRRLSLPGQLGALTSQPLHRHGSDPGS

This experiment has as its target human ether-à-go-go-related gene (hERG) potassium channel (human, UniProt Q12809). The experiment is described as follows: primary screen, population patch clamp on CHO cells stably expressing hERG.
With `CC1CCN(CCCn2c(=S)[nH]c3c(sc4ccccc43)c2=O)CC1.Cl`, the “hERG current change (%, negative = inhibition) at 1uM” value was found to be 3.44%. As to `O=C(CCOc1ccccc1)Nc1ccc(S(=O)(=O)Nc2ncccn2)cc1`, the “hERG current change (%, negative = inhibition) at 1uM” value turned out to be 6.12%. Regarding `O=C(CCCC(=O)OCC1CCCO1)OCC1CCCO1` (stereo not drawn), the “hERG current change (%, negative = inhibition) at 1uM” value is 14%. For the compound `Cc1oc(-c2ccccc2F)nc1CS(=O)(=O)CC(=O)NCCCc1ccccc1`, the “hERG current change (%, negative = inhibition) at 1uM” value was 5.74%. Regarding `Cn1c(=O)c(=O)n(C)c2cc(S(=O)(=O)N3CCN(c4ccc(F)cc4)CC3)ccc21`, the “hERG current change (%, negative = inhibition) at 1uM” value is reported as -7.91%.

As to `Cc1cc(C)cc(-n2ncc3c2CCCC3NC(=O)c2ccccc2N2CCOCC2)c1` (stereo not drawn), the “hERG current change (%, negative = inhibition) at 1uM” value is on record as 0.395%.

Take `O=C(Cc1cccs1)N1CCN(S(=O)(=O)c2ccc(F)c(F)c2)CC1`: the “hERG current change (%, negative = inhibition) at 1uM” value is recorded as 6.65%.

As to `CCOCCOC(=O)C(C)Sc1n[nH]c(=O)[nH]c1=O` (stereo not drawn), the “hERG current change (%, negative = inhibition) at 1uM” value came to 9.71%. The result for `Cc1cc(C)c2c(N)c(C(=O)N/N=C/c3ccccc3)sc2n1` reads 8.88%; that for `Cc1ccc(Oc2c(CO)c(-c3ccccc3)nn2C)cc1`, 18.8%. Turning to `O=C(NCc1ccccc1C(F)(F)F)C1CC(c2cccc(F)c2)=NO1` (stereo not drawn), the “hERG current change (%, negative = inhibition) at 1uM” value was 7.08%. In the case of `COc1ccc([C@H]2/C=C\CN(S(=O)(=O)c3ccc(C)cc3)[C@@H](C)C(=O)N2Cc2ccc(F)cc2)cc1`, the “hERG current change (%, negative = inhibition) at 1uM” value is -9.9%.

On to `COc1ccc(/C=N\NC(=O)c2c(C)nc3ccc(Br)cn23)cc1`, for which the “hERG current change (%, negative = inhibition) at 1uM” value is recorded as 12.3%.

Take `O=C(N/N=C/c1ccc(-c2ccccc2Cl)o1)c1ccccc1`: the “hERG current change (%, negative = inhibition) at 1uM” value is recorded as 12.1%. In the case of `Nc1ccnn1Cc1ccncc1` it was 3.93%; in that of `COc1ccc(CCNC(=O)CN(c2ccc(OC)c(OC)c2)S(=O)(=O)c2ccccc2)cc1OC`, 6.64%; in that of `CCOC(=O)c1cc(C#N)c(Nc2ccc(C)cc2)nc1C(F)(F)F`, 12.3%. `COc1ccc(NC(=O)Nc2ccc(OC)c(OC)c2)c([N+](=O)[O-])c1`: the “hERG current change (%, negative = inhibition) at 1uM” value came to 16%. In the case of `O=C(COC(=O)c1n[nH]c2ccccc12)c1cc(F)ccc1F` it was 3.18%; in that of `COc1ccc(CCC(=O)N2CCN(C3CCCCC3)CC2)cc1`, -56.7%; in that of `CC(=O)c1csc(CS(=O)(=O)c2ccccn2)n1`, 12.9%. Turning to `Cc1c(Cl)cccc1NC(=O)CCC(=O)N/N=C/c1ccc[nH]1`, the “hERG current change (%, negative = inhibition) at 1uM” value came to 6%.

Take `COc1ccc(-c2csc(NCCc3nc4cc(Cl)c(N5CCCCC5)cc4n3CCOCCO)n2)cc1`: the “hERG current change (%, negative = inhibition) at 1uM” value came out at 4.7%. In the case of `Cc1ccc(-c2nn(C)c(=O)c3ccccc23)cc1CNC(=O)c1ccccc1`, the “hERG current change (%, negative = inhibition) at 1uM” value is reported as 13.4%. Turning to `COc1ccc(NS(=O)(=O)c2csc(C(N)=O)c2)cc1`, the “hERG current change (%, negative = inhibition) at 1uM” value came out at 11.5%. For `O=S(=O)(C(=CNc1ccccc1)S(=O)(=O)c1ccccc1)c1ccccc1`, the “hERG current change (%, negative = inhibition) at 1uM” value is reported as 4.9%. Turning to `COc1ccccc1NC(=O)NC1(C(=O)N2CCN(C)CC2)CCCCC1`, the “hERG current change (%, negative = inhibition) at 1uM” value is reported as 17.5%.

`CCCc1cc(C(=O)NC2CCCC2)no1`: the “hERG current change (%, negative = inhibition) at 1uM” value is reported as 5.63%. The result for `Cc1cc(C(=O)OCC(=O)NC2CC2)c2ccccc2n1` reads 8.14%; that for `O=C(NCc1ccco1)C1CC(c2ccc(Cl)cc2)=NO1` (stereo not drawn), 12%; that for `Cc1nc2ccccc2c(=O)n1/N=C1\C(=O)N(C)c2ccccc21`, 14.8%. The result for `CCOc1ccc(N2C(=O)c3cccnc3C2Nc2ccc(OC)cc2)cc1` (stereo not drawn) reads 1.01%; that for `O=C(Nc1cccc(C(F)(F)F)c1)c1cc2c(=O)c3ccccc3oc2nc1C(F)(F)F`, -0.311%. As to `COc1cc2c(cc1OC)C1C/C(=N\O)C(CC(C)C)CN1CC2` (stereo not drawn), the “hERG current change (%, negative = inhibition) at 1uM” value is recorded as 15.2%. For the compound `O=C(Nc1ccc(-n2cc(Cl)cn2)cc1)c1ccncc1`, the “hERG current change (%, negative = inhibition) at 1uM” value was determined as 11.7%.

As for `Cn1c(COc2ccccc2)nnc1SCCN1CCOCC1`, the “hERG current change (%, negative = inhibition) at 1uM” value was 8.68%. For `CCOP(=O)(c1ccccc1)C1(O)CCCCC1` (stereo not drawn), the “hERG current change (%, negative = inhibition) at 1uM” value was found to be 2.31%. Take `CN(C)C(=O)CSc1nc(SCC(=O)N(C)C)n(-c2ccccc2)n1`: the “hERG current change (%, negative = inhibition) at 1uM” value came out at 8.32%. Regarding `CC(C)OCCCn1c(=S)[nH]c2ncccc2c1=O`, the “hERG current change (%, negative = inhibition) at 1uM” value is on record as 18%. As for `CC(C)CC(C(=O)NC(C)(C)C)N(Cc1cccs1)C(=O)c1snc(C(N)=O)c1N` (stereo not drawn), the “hERG current change (%, negative = inhibition) at 1uM” value amounted to 1.03%.

Take `Cc1cccc(N2CCN(C(=O)c3ccc4c(c3)OCCO4)CC2)c1C`: the “hERG current change (%, negative = inhibition) at 1uM” value turned out to be 14%. Consider `C=CCN(C(=O)COc1ccccc1)c1nnc(-c2ccncc2)s1`, for which the “hERG current change (%, negative = inhibition) at 1uM” value is reported as 9.5%.

In the case of `CN(C)c1ccc(-c2ccccc2)nn1`, the “hERG current change (%, negative = inhibition) at 1uM” value was 22.1%.

In the case of `O=C(OCC(=O)N1CCOCC1)c1cccc(F)c1`, the “hERG current change (%, negative = inhibition) at 1uM” value is listed as 17.6%.

For the compound `Cc1ccc(C(=O)NC(=O)CSc2nncn2C)cc1`, the “hERG current change (%, negative = inhibition) at 1uM” value came to 8.94%.

The values above are taken from paper PMC4336329 (PLoS ONE, 2015).
